Experimental findings from the supplement of paper PMC4604168 (melanoma cell lines) are described below.

SMILES strings stand for the structures. This is one part of the list. Many values rest on one well or one pass, so single values are uncertain.
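Further: cells treated in 1,536-well plates, then fixed and DAPI-stained, with nuclei counted from automated high-throughput microscope images.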

The assay concerns WM3619. Nature of the assay: cell count relative to DMSO control; melanoma cells; higher = more viable cells. The following applies: library dose: standard library concentration; 72 h.
`O=c1[nH]nc(Sc2ncc([N+](=O)[O-])s2)n1-c1ccc2c(c1)OCCO2` + COc1cc(N2CCC(N3CCN(C)CC3)CC2)ccc1Nc1ncc(Cl)c(Nc2ccccc2S(=O)(=O)C(C)C)n1 [NVP-TAE684] (first compound 1 µM, partner dose 0.4 µM) had a cell count of 79.1%.
The value for `O=c1[nH]nc(Sc2ncc([N+](=O)[O-])s2)n1-c1ccc2c(c1)OCCO2` + N#Cc1c(O)c2c(-c3ccc(-c4ccccc4O)cc3)csc2[nH]c1=O [A769662] (first compound 1 µM, partner dose 10 µM) was 128%; that for `O=c1[nH]nc(Sc2ncc([N+](=O)[O-])s2)n1-c1ccc2c(c1)OCCO2` + O=c1cc(-c2cccc3c2Sc2ccccc2S3)oc(N2CCOCC2)c1 [KU55933] (first compound 1 µM, partner dose 5 µM) was 103%.
The figure for `O=C(Nc1cccc(Cl)c1)Nc1ncc(CCNc2ncnc3ccsc23)s1` + CC(C)CCN1c2nc(Nc3cc(F)c(O)c(F)c3)ncc2N(C)C(=O)C1C [BID1870] (first compound 0.004 µM, partner dose 1 µM) is 76.8%; for `Cn1cncc1[C@@](N)(c1ccc(Cl)cc1)c1ccc2c(c1)c(-c1cccc(Cl)c1)cc(=O)n2C` [tipifarnib] + COc1cc(N2CCC(N3CCN(C)CC3)CC2)ccc1Nc1ncc(Cl)c(Nc2ccccc2S(=O)(=O)C(C)C)n1 [NVP-TAE684] (first compound 0.05 µM, partner dose 0.4 µM) it is 70.1%; for `C[C@@H]1CCN(C(=O)CC#N)C[C@@H]1N(C)c1ncnc2[nH]ccc12` + CCCCCCCCCCCC1=C(O)C(=O)C=C(O)C1=O [Embelin] (first compound 5 µM, partner dose 6 µM) it is 76.8%.
The figure for `C[C@@H]1CCN(C(=O)CC#N)C[C@@H]1N(C)c1ncnc2[nH]ccc12` + Cc1cc([N+](=O)[O-])ccc1NS(=O)(=O)c1cc(Cl)ccc1Cl [FH535] (first compound 5 µM, partner dose 5 µM) is 85.5%.
`O=c1[nH]nc(Sc2ncc([N+](=O)[O-])s2)n1-c1ccc2c(c1)OCCO2` + COc1ccc(COc2ccc(Cc3cnc(N)nc3N)cc2OC)cc1 [GW2580] (first compound 1 µM, partner dose 5 µM) yielded a cell count of 99.2%.
The figure for `O=C(O)c1ccc(-c2c[nH]c3ncc(-c4ccccc4)cc23)cc1C1CCCC1` + Oc1cc(-c2nc(-c3ccccc3)[nH]c2-c2ccncc2)ccc1Cl [L779450] (first compound 0.8 µM, partner dose 1 µM) is 61.6%.
The figure for `CC1(C)NC(=O)N(c2ccc([N+](=O)[O-])c(C(F)(F)F)c2)C1=O` [nilutamide] + COc1ccc(-c2ccc3c(N4CCOCC4)nc(N4C[C@@H](C)O[C@@H](C)C4)nc3n2)cc1CO [KU0063794] (first compound 5 µM, partner dose 0.1 µM) is 53.7%; for `O=c1[nH]nc(Sc2ncc([N+](=O)[O-])s2)n1-c1ccc2c(c1)OCCO2` + C[C@@H](Oc1cc(-c2cnn(C3CCNCC3)c2)cnc1N)c1c(Cl)ccc(F)c1Cl [Crizotinib] (first compound 1 µM, partner dose 1 µM) it is 93.4%.
The value for `O=C(Nc1cccc(Cl)c1)Nc1ncc(CCNc2ncnc3ccsc23)s1` + Cc1cc([N+](=O)[O-])ccc1NS(=O)(=O)c1cc(Cl)ccc1Cl [FH535] (first compound 0.004 µM, partner dose 5 µM) was 65.4%; that for `O=c1[nH]nc(Sc2ncc([N+](=O)[O-])s2)n1-c1ccc2c(c1)OCCO2` + O=S(=O)(c1ccccc1)N(CC(F)(F)F)c1ccc(C(O)(C(F)(F)F)C(F)(F)F)cc1 [T0901317] (first compound 1 µM, partner dose 7 µM) was 71.9%.
`COc1cc(Nc2ncc(F)c(Nc3ccc4c(n3)NC(=O)C(C)(C)O4)n2)cc(OC)c1OC` [Tamatinib] + O=c1cc(-c2cccc3c2Sc2ccccc2S3)oc(N2CCOCC2)c1 [KU55933] (first compound 2 µM, partner dose 5 µM) displayed a cell count of 53.7%.
In the case of `O=C(O)c1ccc(-c2c[nH]c3ncc(-c4ccccc4)cc23)cc1C1CCCC1` + O=C1NC(=O)/C(=C/c2ccc(-c3ccc(F)cc3O)o2)S1 [AS252424] (first compound 0.8 µM, partner dose 5 µM), the cell count stood at 66.6%.
The figure for `O=c1[nH]nc(Sc2ncc([N+](=O)[O-])s2)n1-c1ccc2c(c1)OCCO2` + CCCCCCCCCCCC1=C(O)C(=O)C=C(O)C1=O [Embelin] (first compound 1 µM, partner dose 6 µM) is 59.1%; for `O=c1[nH]nc(Sc2ncc([N+](=O)[O-])s2)n1-c1ccc2c(c1)OCCO2` + Oc1cc(-c2nc(-c3ccccc3)[nH]c2-c2ccncc2)ccc1Cl [L779450] (first compound 1 µM, partner dose 1 µM) it is 74.1%; for `O=c1[nH]nc(Sc2ncc([N+](=O)[O-])s2)n1-c1ccc2c(c1)OCCO2` + Oc1nc(-c2ccc(C(F)(F)F)cc2)nc2c1CSCC2 [XAV939] (first compound 1 µM, partner dose 10 µM) it is 81.6%.
The value for `O=c1[nH]nc(Sc2ncc([N+](=O)[O-])s2)n1-c1ccc2c(c1)OCCO2` + COC(=O)c1sccc1S(=O)(=O)Nc1ccc(Nc2ccccc2)cc1OC [GSK0660] (first compound 1 µM, partner dose 5 µM) was 75.4%.
The value for `O=C(Nc1cccc(Cl)c1)Nc1ncc(CCNc2ncnc3ccsc23)s1` + COc1ccc2c(c1)CCC1C2CCC2(C)C(NCCCCCCN3C(=O)C=CC3=O)CCC12 [U73122] (first compound 0.004 µM, partner dose 2 µM) was 115%.
Turning to `COc1cc(Nc2ncc(F)c(Nc3ccc4c(n3)NC(=O)C(C)(C)O4)n2)cc(OC)c1OC` [Tamatinib] + Oc1cc(-c2nc(-c3ccccc3)[nH]c2-c2ccncc2)ccc1Cl [L779450] (first compound 2 µM, partner dose 1 µM), the cell count worked out at 60.5%.
With `O=c1[nH]nc(Sc2ncc([N+](=O)[O-])s2)n1-c1ccc2c(c1)OCCO2` + O=C(Nc1ccccc1)c1cc([N+](=O)[O-])ccc1Cl [GW9662] (first compound 1 µM, partner dose 10 µM), the cell count worked out at 31.5%.
The figure for `COc1cc(Nc2ncc(F)c(Nc3ccc4c(n3)NC(=O)C(C)(C)O4)n2)cc(OC)c1OC` [Tamatinib] + COc1cc2ncnc(Nc3ccc(Oc4ccccc4)cc3)c2cc1OC [SrcI1] (first compound 2 µM, partner dose 10 µM) is 52.8%; for `O=c1[nH]nc(Sc2ncc([N+](=O)[O-])s2)n1-c1ccc2c(c1)OCCO2` + CC(C)CCN1c2nc(Nc3cc(F)c(O)c(F)c3)ncc2N(C)C(=O)C1C [BID1870] (first compound 1 µM, partner dose 1 µM) it is 60.3%; for `O=C(O)c1ccc(-c2c[nH]c3ncc(-c4ccccc4)cc23)cc1C1CCCC1` + COC(=O)c1sccc1S(=O)(=O)Nc1ccc(Nc2ccccc2)cc1OC [GSK0660] (first compound 0.8 µM, partner dose 5 µM) it is 69.7%.
The figure for `O=c1[nH]nc(Sc2ncc([N+](=O)[O-])s2)n1-c1ccc2c(c1)OCCO2` + Cn1cc(/C=C2\C(=O)Nc3cccnc32)c2ccccc21 [GW441756] (first compound 1 µM, partner dose 2 µM) is 74.7%.
The figure for `O=c1[nH]nc(Sc2ncc([N+](=O)[O-])s2)n1-c1ccc2c(c1)OCCO2` + COc1ccc(-c2ccc3c(N4CCOCC4)nc(N4C[C@@H](C)O[C@@H](C)C4)nc3n2)cc1CO [KU0063794] (first compound 1 µM, partner dose 0.1 µM) is 90.8%.
`Cn1cncc1[C@@](N)(c1ccc(Cl)cc1)c1ccc2c(c1)c(-c1cccc(Cl)c1)cc(=O)n2C` [tipifarnib] + COc1ccc2c(c1)CCC1C2CCC2(C)C(NCCCCCCN3C(=O)C=CC3=O)CCC12 [U73122] (first compound 0.05 µM, partner dose 2 µM) had a cell count of 58.7%.
The figure for `O=c1[nH]nc(Sc2ncc([N+](=O)[O-])s2)n1-c1ccc2c(c1)OCCO2` + CCN(CC)CCCCNc1ncc2cc(-c3cc(OC)cc(OC)c3)c(NC(=O)NC(C)(C)C)nc2n1 [PD173074] (first compound 1 µM, partner dose 0.5 µM) is 82.4%; for `O=c1[nH]nc(Sc2ncc([N+](=O)[O-])s2)n1-c1ccc2c(c1)OCCO2` + COc1cc2ncnc(Nc3ccc(Oc4ccccc4)cc3)c2cc1OC [SrcI1] (first compound 1 µM, partner dose 10 µM) it is 74.5%.
The figure for `O=c1[nH]nc(Sc2ncc([N+](=O)[O-])s2)n1-c1ccc2c(c1)OCCO2` + O=C1NC(=O)/C(=C/c2ccc(-c3ccc(F)cc3O)o2)S1 [AS252424] (first compound 1 µM, partner dose 5 µM) is 74.9%; for `O=c1[nH]nc(Sc2ncc([N+](=O)[O-])s2)n1-c1ccc2c(c1)OCCO2` + CCc1ccc(CCOc2ccc(CC3SC(=O)NC3=O)cc2)nc1 [pioglitazone] (first compound 1 µM, partner dose 10 µM) it is 44.4%.
The value for `O=c1[nH]nc(Sc2ncc([N+](=O)[O-])s2)n1-c1ccc2c(c1)OCCO2` + O=C(O)C(=O)Nc1sc2c(c1C(=O)O)CCNC2 [TCS401] (first compound 1 µM, partner dose 8.33333 µM) was 93.8%; that for `O=c1[nH]nc(Sc2ncc([N+](=O)[O-])s2)n1-c1ccc2c(c1)OCCO2` + Nc1cccc2c1CN(C1CCC(=O)NC1=O)C2=O [lenalidomide] (first compound 1 µM, partner dose 5 µM) was 82%.
